# According to a collection of fitness landscapes (doi:10.1126/science.1257360):
# The other results are listed elsewhere or left out.
# B1: PhoQ; a variant is named by its letters at X, in order, P23837 (parent)
# chain: MKKLLRLFFPLSLRVRFLLATAAVVLVLSLAYGMVALIGYSVSFDKTTFRLLRGESNLFYTLAKWENNKLHVELPENIDKQSPTMTLIYDENGQLLWAQRDVPWLMKMIQPDWLKSNGFHEIEADVNDTSLLLSGDHSIQQQLQEVREDDDDAEMTHSVAVNVYPATSRMPKLTIVVVDTIPVELKSSYMVWSWFIYVLSANLLLVIPLLWVAAWWSLRPIEALAKEVRELEEHNRELLNPATTRELTSLVRNLNRLLKSERERYDKYRTTLTDLTHSLKTPLXXLQXXLRSLRSEKMSVSDAEPVMLEQISRISQQIGYYLHRASMRGGTLLSRELHPVAPLLDNLTSALNKVYQRKGVNISLDISPEISFVGEQNDFVEVMGNVLDNACKYCLEFVEISARQTDEHLYIVVEDDGPGIPLSKREVIFDRGQRVDTLRPGQGVGLAVAREITEQYEGKIVAGESMLGGARMEVIFGRQHSAPKDE
# Variants of: B1
# Test: enrichment ratio after two sorts for PhoP signalling (ratio (wild type AVST 3.29)); higher = more functional
# Conditions: with PhoP (E. coli)
row,Variant,enrichment ratio
1,GNCF,6.9
2,AMVH,5.86
3,FHPK,≤ 0.25
4,NATR,≤ 0.25
5,RYNI,≤ 0.25
6,MCVH,≤ 0.25
7,LLND,≤ 0.25
8,WYGF,≤ 0.25
9,PCHM,≤ 0.25
10,PGDQ,≤ 0.25
11,DGWM,≤ 0.25
12,GHAV,≤ 0.25
13,FSEP,≤ 0.25
14,IETM,≤ 0.25
15,IYYE,≤ 0.25
16,YSWK,≤ 0.25
17,THTG,8.26
18,IADP,≤ 0.25
19,QTNM,≤ 0.25
20,VNGL,≤ 0.25
21,CGGF,≤ 0.25

row,Variant,enrichment ratio
1,AVCM,15.4
2,PNKG,≤ 0.25
3,ENPA,≤ 0.25
4,SHDS,≤ 0.25
5,EIPV,≤ 0.25
6,VESM,0.706
7,RKPG,≤ 0.25
8,KRRM,≤ 0.25
9,CSCV,0.507
10,DLWH,≤ 0.25
11,NCCS,≤ 0.25
12,FHHY,≤ 0.25
13,KVIS,≤ 0.25
14,DIPS,≤ 0.25
15,DDGP,≤ 0.25
16,TCNF,3.86
17,HFQH,≤ 0.25
18,SEGT,1.26
19,DWIF,≤ 0.25
20,FLKV,≤ 0.25
21,FSTG,≤ 0.25

row,Variant,enrichment ratio
1,LKSG,≤ 0.25
2,YPDI,≤ 0.25
3,WMIK,≤ 0.25
4,SQAA,5.77
5,SAEK,≤ 0.25
6,VKAA,≤ 0.25
7,LTRD,≤ 0.25
8,MEFV,9.93
9,HMHI,≤ 0.25
10,PHFE,≤ 0.25
11,TLDA,≤ 0.25
12,VWIN,≤ 0.25
13,ADLL,9.99
14,DTWW,≤ 0.25
15,QKRS,≤ 0.25
16,DAKN,≤ 0.25
17,SELW,0.709
18,VDCE,≤ 0.25
19,LTQQ,≤ 0.25
20,AWHI,≤ 0.25
21,YIGY,0.435

row,Variant,enrichment ratio
1,LPKW,≤ 0.25
2,IMHF,≤ 0.25
3,IVFF,≤ 0.25
4,RECW,≤ 0.25
5,SDFI,≤ 0.25
6,IWAY,≤ 0.25
7,HNDT,≤ 0.25
8,WVIL,≤ 0.25
9,SMQL,12.1
10,GCPN,≤ 0.25
11,KYLG,≤ 0.25
12,SFQM,≤ 0.25
13,MDTR,≤ 0.25
14,DYTD,≤ 0.25
15,QQTE,≤ 0.25
16,LQFK,≤ 0.25
17,KEIT,≤ 0.25
18,SVAH,12.7
19,AWLL,0.288
20,TCLC,23.4
21,QVKG,≤ 0.25
